# Measurements reported in the supplement of paper PMC3334620.
# Over roughly 33,000 sequences, “E-score (-0.5 to 0.5)” has its median near -0.032; the highest 2% begin near 0.36. This is one part of the list.
# Molecular target: T1, Sko1 (UniProt Q02100)
# T1 sequence: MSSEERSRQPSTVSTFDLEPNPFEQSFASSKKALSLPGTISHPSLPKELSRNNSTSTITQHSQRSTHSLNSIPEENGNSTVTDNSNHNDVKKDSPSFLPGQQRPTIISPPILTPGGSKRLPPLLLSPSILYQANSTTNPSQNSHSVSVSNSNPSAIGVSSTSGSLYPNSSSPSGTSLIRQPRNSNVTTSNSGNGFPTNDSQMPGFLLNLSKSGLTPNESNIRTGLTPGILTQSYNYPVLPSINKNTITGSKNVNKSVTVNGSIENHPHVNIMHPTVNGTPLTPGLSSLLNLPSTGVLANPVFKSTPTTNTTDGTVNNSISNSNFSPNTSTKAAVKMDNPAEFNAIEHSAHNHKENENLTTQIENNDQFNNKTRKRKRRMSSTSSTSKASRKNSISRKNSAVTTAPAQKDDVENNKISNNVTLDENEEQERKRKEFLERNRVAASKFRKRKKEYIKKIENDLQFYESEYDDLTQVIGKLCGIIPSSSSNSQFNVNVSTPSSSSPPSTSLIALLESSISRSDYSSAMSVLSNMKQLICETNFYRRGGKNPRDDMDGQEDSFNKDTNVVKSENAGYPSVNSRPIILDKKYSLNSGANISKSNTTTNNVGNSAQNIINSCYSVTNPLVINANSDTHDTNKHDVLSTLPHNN
# Assay: PBM E-score (8-mer binding enrichment) (E-score (-0.5 to 0.5)); higher = stronger / more preferred TF binding; most listed sequences are background and not binding sites
# Details: protein concentration: 200 nM; construct: GST-full length
# Procedure, shortened: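 Each ungapped eight-base word and its reverse complement, pooled, received an E-score from the Universal PBM Analysis Suite. Underlying scans, normalised with masliner, recorded fluorescent anti-GST bound to GST-tagged yeast transcription factors. These were applied at about 100-200 nM to universal all-10-mer Agilent arrays double-stranded by primer extension.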
row,Sequence,PBM E-score
1,CAAACACA,0.226
2,CACGTTCC,0.00159
3,ATGAAGCG,-0.28
4,ACCGGTTC,-0.276
5,CATCTAGC,-0.0817
6,TGGGTCAA,-0.0732
7,CTTTATTA,0.214
8,CATCCGCA,0.153
9,CGACGACG,0.19
10,AAACTTAT,0.256
11,AGGCAAGA,-0.0215
12,ATCTCTTC,-0.00254
13,ACTCGCGC,-0.122
14,CGAAAATA,0.191
15,GAGAGTTA,-0.0408
16,AGATCAGC,-0.183
17,CCATTACC,-0.148
18,AATTTATG,0.156
19,CACGGCCG,-0.197
20,GATTTTGA,0.213
21,CATACGCA,0.392
22,AGGACGAC,-0.114
23,GTTGATGA,0.303
24,ACTCATGA,0.218
25,ACCTCACC,-0.185

row,Sequence,PBM E-score
1,TATATAAA,0.246
2,CATTCTCA,0.128
3,CCAATGGG,-0.408
4,TATAATAA,0.16
5,AGACCTTA,0.0871
6,TTTCCAAA,0.0643
7,AGATTACG,0.459
8,ATCTATCG,0.003
9,ATTTTCTG,0.00918
10,AAGCCCCA,-0.3
11,ACGGAGCT,-0.193
12,AGCAAGTC,-0.22
13,ATAACTGC,0.0695
14,CGCCCCTA,-0.0907
15,AACAGTAG,0.104
16,CGGACTGA,-0.0335
17,GTAACACA,0.16
18,CGTACTGA,0.254
19,ACGACGTC,0.367
20,CAAGAGAA,0.0556
21,GGACTAAA,-0.116
22,CGATCGGC,-0.0124
23,AAAGTCGC,0.0616
24,AATCAGAG,0.0386
25,ATGGGCAG,-0.208

row,Sequence,PBM E-score
1,CCCGAAGA,-0.199
2,CCAAACGA,-0.169
3,GCGAGAAC,-0.0734
4,TACGGCCA,-0.151
5,AGTCGACC,-0.182
6,GCATCCGA,-0.208
7,GCCCCGCA,-0.286
8,CGGCTTTA,-0.112
9,ACAGCACA,0.168
10,AACTAACG,0.178
11,ACCTGTCT,-0.255
12,ACTTAGCT,-0.211
13,ATCTGTAA,0.00807
14,CTGCTTGC,-0.136
15,CAATTGAG,-0.101
16,GCCTAGGA,-0.197
17,ACACCCCG,-0.283
18,GCTAAGTA,0.0116
19,CCTTTGCA,-0.0233
20,AGCGGCCT,-0.335
21,AGCTGACA,-0.113
22,CCGTATTC,0.0573
23,ACGCTCGA,0.0575
24,GCTGCGCA,-0.179
25,AGTTGTAG,-0.0613

row,Sequence,PBM E-score
1,ACAAGGGA,-0.163
2,AGTAAGAG,-0.117
3,TAAACTGA,0.161
4,CACACCGC,-0.184
5,AACATAGG,-0.0811
6,GCGTCACA,0.406
7,ACGTCGGC,0.348
8,CCTCCAAA,-0.142
9,ACCGCACA,-0.262
10,AAAGGCTA,-0.214
11,ACCTATTC,-0.0568
12,GTCATTGA,0.416
13,AAATCGGA,-0.0955
14,GATTCTAA,0.0158
15,AAGTCCGG,-0.268
16,CATTTCTC,0.0912
17,GCACTGCC,-0.169
18,TGAGAAAA,0.123
19,AACCCCCA,-0.33
20,CAGCGGCC,-0.233
21,AAACCGAT,-0.0581
22,GCGGCTCA,-0.161
23,ATGTGGTG,0.143
24,CGTTATAG,0.194
25,ACAACAGA,0.0102

row,Sequence,PBM E-score
1,ACATATCG,0.0818
2,CGCACCTA,0.027
3,TACCCGAA,-0.0322
4,CGTACTTC,0.289
5,ATAGGCAG,-8e-05
6,GAGGTTCA,-0.00892
7,AACTTATC,-0.0274
8,ATCACCCC,-0.173
9,AGCCCAGA,-0.201
10,CCTAGCCG,-0.219
11,CTAAAAAC,0.0271
12,GCGCGTCC,-0.15
13,TCGTGTCA,0.0636
14,ACTGATTA,0.14
15,ACGTTAAA,0.355
16,AAACTATG,-0.116
17,CCCTGCGC,-0.19
18,CCACGTAG,0.377
19,CGTTAAAG,0.105
20,CGTGCTTC,0.26
21,GCGCTTCA,-0.155
22,AAGGGGCG,-0.406
23,AAGACCAA,0.00527
24,GAGACTGC,-0.054
25,GCAACAAA,0.113

row,Sequence,PBM E-score
1,CGAAGCTA,0.104
2,CGCCTCTA,-0.112
3,CCGACAGA,0.0108
4,CCCCACAA,0.0461
5,ATGCTTGC,-0.0401
6,ACATTACG,0.425
7,CTGTACAG,-0.119
8,AGGATCCT,-0.0833
9,CTTTGGGA,-0.187
10,CGGCGCCC,-0.127
11,AGCGGATA,-0.246
12,ATCGGGGA,-0.224
13,CGGCTCTC,-0.176
14,GAGCTCAA,-0.0686
15,ACGTTCCT,0.279
16,CTAACAAG,0.0229
17,ACCAAGAG,-0.236
18,GGAATACA,-0.0466
19,AGAGGCGC,-0.146
20,ACGACCAC,0.0895
21,GGCTAGAA,-0.19
22,ACGCCCCT,-0.248
23,AGAGTGAA,0.0907
24,CTCGCTTC,-0.2
25,ACGGTAGC,0.037

row,Sequence,PBM E-score
1,ACATATGG,0.0278
2,GGCGCAGA,0.00619
3,CTACAACC,-0.056
4,AACGTCGA,0.281
5,CAAACGTG,0.272
6,TAGCATAA,0.0927
7,CACAATAG,0.0487
8,GGCCGGAA,-0.389
9,AAGACGGG,-0.157
10,GACCGTAA,-0.0314
11,AGACGGAC,-0.0494
12,CAGCTCTC,-0.208
13,GCATTACC,-0.0897
14,CAGCAGTA,-0.0325
15,AAATCTTG,0.158
16,TAGGACTA,-0.0581
17,ATCCCCCA,-0.382
18,ACTGGAAG,-0.121
19,GCCTAAGC,-0.19
20,GAACGCCC,-0.244
21,AATTACGT,0.492
22,ATGTGATA,0.255
